Among all 420,000 compounds or so, about 50,000 (12%) were called active. The inconclusive results got no clear call from the source; some entries with a clear call stand among them for comparison. The call rests on the fitted dose curve; in most records, active means well fitted inhibition curve with a large enough effect; inconclusive means small, poorly fitted or top-dose-only effect; inactive means flat fitted curve, though single readings scatter. Potencies of inconclusive entries are left out as doubtful fits.
experiment: qHTS for Inhibitors of human tyrosyl-DNA phosphodiesterase 1 (TDP1): qHTS in cells in presence of CPT; conditions: chicken DT40 Tdp1-/-;hTDP1 cells + 20 nM CPT, ATP luminescence, 48 h; activity change, negative = growth inhibition: at 46.2 µM (top of the series) unless noted; further: nearly all actives have a fitted effect of over 55% in size
Summary of the method: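 Cell growth measured by CellTiter-Glo luminescence after a minimum 48 h, 37 C compound exposure with 20 nM CPT in Tdp1-knockout DT40 cells stably expressing hTDP1, seeded 400/well; qHTS titration format.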
On the % scale 0 is the no-effect control and ±100 the full control effect; potency means the concentration at half of the fitted maximal effect; tags describe the fitted curve by direction and shape.

Row | SMILES | Potency | activity change, negative = growth inhibition
1 | Nc1ccn([C@@H]2O[C@H](COS(=O)(=O)O)[C@@H](O)[C@H]2O)c(=O)n1 | active: 9.2 µM | 
2 | CC(C)(C)C(=O)c1sc(Nc2ccccc2)nc1N | inconclusive [inhibitor, single point] | 
3 | Cc1ccc(NC(=O)c2ccc(Nc3ccccc3F)nc2)cc1 | inconclusive [inhibitor, single point] | 
4 | COC(=O)N1CCC2(CCCN(Cc3ccccc3OC)C2)CC1 | inconclusive [inhibitor, single point] | 
5 | CCN(CC)CCN(C(=O)CCS(=O)(=O)c1ccccc1)c1nc2cc3c(cc2s1)OCO3 | active: 8.2 µM | 
6 | CCOc1ccc(-n2c(=S)sc3c(=O)[nH]c(SCC(=O)N4CCC(C)CC4)nc32)cc1 | inactive | 
7 | COc1ccccc1CC(=O)N(CCC1=CCCCC1)c1c(N)n(Cc2ccccc2)c(=O)[nH]c1=O | inactive | 
8 | C=CCOC(=O)C(C#N)c1nc2ccccc2nc1N1CCN(Cc2ccccc2)CC1 (stereo not given) | inconclusive [inhibitor, single point] | 
9 | COc1ccc(CCNC(=O)COC(=O)c2ccccc2NCCO)cc1OC | inactive | 
10 | O=C(C1CCCCC1)N1CCC(CO)(Cc2ccccc2Cl)CC1 | inconclusive [inhibitor, single point] | 
11 | O=C(NCc1nc2ccccc2[nH]1)C1=C[C@@H](c2ccccc2)C[C@@H](OCc2ccc(CO)cc2)O1 | inconclusive [inhibitor, single point] | 
12 | Cc1ccc(NNC(=O)c2sccc2Cl)c(C)c1 | inconclusive [inhibitor, single point] | 
13 | COc1ccccc1NC(=O)N(C)C[C@@H]1OCc2cnnn2CCCC(=O)N([C@H](C)CO)C[C@@H]1C | inactive | 
14 | CCCCNc1c(-c2cccc(OC)c2)nc2nc(C)cc(C)n12 | active: 18.4 µM | 
15 | NNC(=O)c1ccc(-c2cccc([N+](=O)[O-])c2)o1 | inconclusive [inhibitor, single point] | 
16 | COC(=O)c1cc(NC(=O)COC(=O)CN2C(=O)C3CC=CCC3C2=O)cc(C(=O)OC)c1 (stereo not given) | inactive | 
17 | Cc1cc(NC(=O)CCC(=O)N(Cc2cccnc2)C(C(=O)NC(C)(C)C)c2ccccc2Cl)no1 (stereo not given) | inactive | 
18 | COc1ccc(-c2noc(CSc3nnc(-c4ccncc4)n3-c3ccc(C)cc3)n2)cc1OC | active: 16.4 µM | 
19 | Cc1ccc(-n2c(=O)[nH]c3c(C(N)=O)nc(-c4ccc(C)o4)nc32)cc1 | active: 9.2 µM | 
20 | O=C(O)CN1C(=O)c2cccc(Oc3ccc(Cl)cc3)c2C1=O | inactive | 
21 | COc1ccc(NC(=O)CSc2nc3ccccc3c(=O)n2CCCN2CCCCC2)c(OC)c1 | inconclusive [inhibitor, single point] | 
22 | COc1ccccc1NC(=O)CCNS(=O)(=O)c1ccc2c(c1)CC(C)N2C(=O)C1CC1 (stereo not given) | inconclusive [inhibitor, single point] | 
23 | Cc1noc(C)c1CC(=O)Nc1ccc2c(c1)OCO2 | inactive | 
24 | C=CCCC(=O)Nc1nc(C)c(-c2csc(Nc3cccc(OC)c3)n2)s1 | active: 16.4 µM | 

Row | SMILES | Potency | activity change, negative = growth inhibition
25 | CCCCc1ccc(NC(=O)COC(=O)c2ccccc2OCC(=O)Nc2ccc(Br)cc2)cc1 | active: 11.2 µM | 
26 | Cc1ccc(OCCCCn2ccnc2C)c(C)c1 | inconclusive [inhibitor, single point] | 
27 | CC1(C)OC(=O)C2=C(C[C@@H](C3CCCCC3)O[C@@H]2c2ccc(Cl)cc2)O1 | inconclusive [inhibitor, single point] | 
28 | CC(=O)N1c2ccc(S(=O)(=O)N(C)c3cc(C)ccc3C)cc2CC1C (stereo not given) | inconclusive [inhibitor, single point] | 
29 | CCc1ccc(C(=O)NNc2cc(Cl)ccc2Cl)cc1 | inconclusive [inhibitor, single point] | 
30 | CCN(C(=O)CCCC(=O)N(CC)c1ccccc1)c1ccccc1 | inactive | 
31 | O=C(c1ccccc1Br)N1CCN(Cc2ccc3c(c2)OCO3)CC1 |  | inconclusive: -27.2% [inhibitor]
32 | COC(=O)c1ccc2nc(C3CCCCC3)c(Cc3ccccc3C(F)(F)F)n2c1 | inconclusive [inhibitor, single point] | 
33 | Cc1ccc(NC(=O)Cc2ccsc2)cc1S(=O)(=O)N1CCOCC1 | inactive | 
34 | COc1cc(OC)cc(-c2nnc(NC(=O)CCS(=O)(=O)c3ccccc3)o2)c1 | inconclusive [inhibitor, single point] | 
35 | O=C(N/N=C/C=C/c1ccccc1)c1cccc(Br)c1 | inconclusive [inhibitor, single point] | 
36 | CCn1cc(CNC(=O)c2cc(-c3ccc(C)c(C)c3)nc3ccccc23)c(C)n1 | active: 14.6 µM | 
37 | CC1CCCCN1C(=O)Cn1c(SCC(=O)N(C)c2ccccc2)nc2ccccc21 (stereo not given) |  | inconclusive: -35.9% [inhibitor]
38 | COc1ccc(NC(=O)N(C)[C@H]2C[C@H]3c4[nH]c5ccc(-c6ccc7c(c6)OCO7)cc5c4CCN3C[C@H]2[C@H](C)O)cc1 | active: 8.2 µM | 
39 | CCOC(=O)C1=C(C)N(C)C(C)=C(C(=O)OCC)C1c1ccsc1 | inconclusive [inhibitor, single point] | 
40 | CSCCC(NC(=O)c1ccc(Cl)cc1Cl)C(=O)N1CCCCCCC1 (stereo not given) | inconclusive [inhibitor, single point] | 
41 | CCCCn1c(N)c(N(Cc2ccccc2OC)C(=O)COc2ccc(F)cc2Cl)c(=O)[nH]c1=O | inactive | 
42 | COc1cccc(NC(=O)c2ccc(NS(=O)(=O)c3cccs3)cc2)c1 | inconclusive [inhibitor, partial curve] | 
43 | C/C(=N\NC(=O)c1cc(-c2ccncc2)nc2ccccc12)c1ccc(OC(F)F)cc1 | inconclusive [inhibitor, single point] | 
44 | COCCNC(=O)CN(C(=O)Cn1nnc2ccccc21)c1cc(C)cc(C)c1 | inactive | 
45 | COc1ccc(C[C@H]2CN3C(=NC[C@@H]3Cc3ccc(O)cc3)N2CCNC(=O)c2ccc(C)c(Br)c2)cc1 | active: 13 µM | 
46 | CCC(C)c1ccc(OCCn2ccnc2)cc1 (stereo not given) | inconclusive [inhibitor, single point] | 
47 | COCc1cc(NCc2ccc(Cl)cc2)nc(C)n1 | inactive | 
48 | Cc1ccc(S(=O)(=O)N(CC(=O)Nc2cccc([N+](=O)[O-])c2)Cc2ccc(Cl)cc2)cc1 | inconclusive [inhibitor, single point] | 

Row | SMILES | Potency | activity change, negative = growth inhibition
49 | Cc1ccc(NC(=O)c2ccc(NC(=O)N3CCSc4nc(C)cc(C)c43)cc2)c(Cl)c1 |  | inconclusive: -34.3% [inhibitor]
50 | Cc1nnc(-c2cccc(Br)c2)c2cn(-c3ccccc3)nc12 | active: 23.1 µM | 
51 | CC(C)C1Oc2ccccc2C(=O)N(CC(=O)c2ccc3c(c2)OCCO3)C1=O (stereo not given) | inconclusive [inhibitor, single point] | 
52 | O=C(NC(Cc1ccccc1)c1nc2ccccc2[nH]1)c1ccc(Cl)c([N+](=O)[O-])c1 (stereo not given) | active: 10.3 µM | 
53 | Cc1cccc(C(c2sc3nc(-c4ccco4)nn3c2O)N2CCN(c3ccccc3)CC2)c1 (stereo not given) | inconclusive [inhibitor, single point] | 
54 | COc1cc(/C=C2\C=Cc3ccccc32)ccc1N(C)C | inconclusive [inhibitor, single point] | 
55 | NC(=O)C1CCN(C2=C(NS(=O)(=O)c3ccc(Br)cc3)C(=O)c3ccccc3C2=O)CC1 | active: 23.1 µM | 
56 | C[C@@H]1CCCCO[C@H](CN(C)Cc2ccc(C(=O)O)cc2)[C@@H](C)CN([C@H](C)CO)C(=O)c2cc(N(C)C)ccc2O1 | inactive | 
57 | O=C(c1ccco1)[C@@H]1[C@@H]2C(=O)N(c3ccc(F)cc3)C(=O)[C@@H]2[C@H]2C=Cc3ccccc3N21 | active: 6.51 µM | 
58 | COc1ccc(NC(=O)N2CC3(CCN(C(=O)c4cc(C(F)(F)F)cc(C(F)(F)F)c4)CC3)C2)cc1 | inactive | 
59 | CC(C)N(N=Nc1ccc([N+](=O)[O-])cc1)C(C)C | inconclusive [inhibitor, single point] | 
60 | CC1CN2C(c3ccc([N+](=O)[O-])cc3)=CSC2=N1 (stereo not given) | inactive | 
61 | OC(CN1CCCCC1)Cn1c2ccc(Cl)cc2c2cc(Cl)ccc21 (stereo not given) | inconclusive [inhibitor, single point] | 
62 | Clc1cccc(-c2nc(NCC3CCCO3)c3ccccc3n2)c1 (stereo not given) | inconclusive [inhibitor, single point] | 
63 | CCOC(=O)C1=C(C)N=c2s/c(=C\c3ccc(OC(C)=O)c(OCC)c3)c(=O)n2C1/C=C/c1ccccc1 (stereo not given) | inconclusive [inhibitor, single point] | 
64 | COC(=O)c1ccc(/C=C/c2c(-c3ccsc3)oc3ccc(N4CCOCC4)cc23)cc1 | active: 18.4 µM | 
65 | Cc1ccc(-c2noc(CCC(=O)N3CCN(c4cccc(C(F)(F)F)c4)CC3)n2)cc1 | inconclusive [inhibitor, single point] | 
66 | CC(C)C(NC(=S)NCc1ccccc1)C(=O)O (stereo not given) | inactive | 
67 | COc1ccc(NS(=O)(=O)c2ccc(Cl)c(NC(=O)c3ccccc3F)c2)cc1 | inconclusive [inhibitor, single point] | 
68 | CC1CC2=C(NC(=S)NC2c2ccccc2F)/C(=C/c2ccccc2F)C1 (stereo not given) | inconclusive [inhibitor, single point] | 
69 | O=C(COC(=O)Cc1ccc(Cl)cc1)NCc1cccs1 | inactive | 
70 | O=c1c2ccccc2nnn1CSc1nc2cc(Cl)ccc2c(=O)n1Cc1ccco1 | inactive | 

Source: PubChem BioAssay AID686979 (National Center for Advancing Translational Sciences (NCATS), 2013)
